The IC50 comes from the fitted curve, where viability falls to half of the control; a fit beyond the top or the lowest dose is shown as a bound at that dose. AUC sums up the same curve from the lowest dose to the 256-fold higher top dose; it is 1 without any effect and falls as sensitivity rises.
Each cell line was assayed with COc1ccc(C2=N[C@@H](c3ccc(Cl)cc3)[C@@H](c3ccc(Cl)cc3)N2C(=O)N2CCNC(=O)C2)c(OC(C)C)c1 [Nutlin-3a] (assay: Viability of human cancer cell lines after 72 h of drug (GDSC screen)).
Protocol: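 Human cancer cell lines in 384-well plates, medium with 10% serum, drug for 72 h over a 256-fold dose range (nine 2-fold or five 4-fold steps up to the top dose). Adherent lines were fixed and stained with the nucleic acid dye Syto60, suspension lines read with resazurin; signal relative to control wells, capped at 0 and 100%. One two-parameter sigmoid per drug and line, fitted in a mixed model over all curves with the slope shared within a line.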
With “NB14 (neuroblastoma, adherent, top dose 8 µM)” the AUC was 0.989 and the IC50 was > 8 µM. For “NB17 (neuroblastoma, adherent, top dose 8 µM)”, the AUC was 0.825 and the IC50 was 5.79 µM. With “NB69 (neuroblastoma, adherent, top dose 8 µM)” the AUC was 0.774 and the IC50 was 2.78 µM. In the case of “NB(TU)1-10 (neuroblastoma, adherent, top dose 8 µM)”, the AUC is reported as 0.963 and the IC50 is reported as > 8 µM. With “NB-4 (acute myeloid leukaemia, suspension, top dose 8 µM)” the AUC was 0.991 and the IC50 was > 8 µM. In the case of “NCC010 (kidney, adherent, top dose 8 µM)”, the AUC is reported as 0.986 and the IC50 is reported as > 8 µM. “NCC021 (kidney, adherent, top dose 8 µM)” was tested, and the AUC was 0.972 and the IC50 was > 8 µM. With “NCI-H23 (lung adenocarcinoma, adherent, top dose 8 µM)” the AUC was 0.956 and the IC50 was > 8 µM. Work on “NCI-H28 (mesothelioma, adherent, top dose 8 µM)” yielded an AUC of 0.802 and an IC50 of 5.51 µM. For “NCI-H64 (small cell lung carcinoma, suspension, top dose 8 µM)”, the AUC was 0.995 and the IC50 was > 8 µM. For “NCI-H69 (small cell lung carcinoma, suspension, top dose 8 µM)”, the AUC was 0.986 and the IC50 was > 8 µM. “NCI-H82 (small cell lung carcinoma, suspension, top dose 8 µM)” was tested, and the AUC was 0.98 and the IC50 was > 8 µM. For “NCI-H146 (small cell lung carcinoma, suspension, top dose 8 µM)”, the AUC was 0.993 and the IC50 was > 8 µM. With “NCI-H187 (small cell lung carcinoma, suspension, top dose 8 µM)” the AUC was 0.988 and the IC50 was > 8 µM. “NCI-H209 (small cell lung carcinoma, suspension, top dose 8 µM)” was tested, and the AUC was 0.951 and the IC50 was > 8 µM. With “NCI-H211 (small cell lung carcinoma, adherent, top dose 8 µM)” the AUC was 0.965 and the IC50 was > 8 µM. With “NCI-H226 (lung squamous cell carcinoma, adherent, top dose 8 µM)” the AUC was 0.828 and the IC50 was 5.27 µM. For “NCI-H322M (lung adenocarcinoma, suspension, top dose 8 µM)”, the AUC was 0.973 and the IC50 was > 8 µM. “NCI-H345 (small cell lung carcinoma, suspension, top dose 8 µM)” was tested, and the AUC was 0.99 and the IC50 was > 8 µM. For “NCI-H358 (lung adenocarcinoma, adherent, top dose 4 µM)”, the AUC was 0.893 and the IC50 was > 4 µM. In the case of “NCI-H446 (small cell lung carcinoma, semi-adherent, top dose 8 µM)”, the AUC is reported as 0.985 and the IC50 is reported as > 8 µM. “NCI-H460 (large cell lung carcinoma, adherent, top dose 8 µM)” was tested, and the AUC was 0.836 and the IC50 was 4.6 µM. “NCI-H508 (large intestine, semi-adherent, top dose 8 µM)” was tested, and the AUC was 0.976 and the IC50 was > 8 µM. “NCI-H510A (small cell lung carcinoma, semi-adherent, top dose 8 µM)” was tested, and the AUC was 0.98 and the IC50 was > 8 µM. With “NCI-H520 (lung squamous cell carcinoma, adherent, top dose 8 µM)” the AUC was 0.981 and the IC50 was > 8 µM. “NCI-H522 (lung adenocarcinoma, adherent, top dose 4 µM)” was tested, and the AUC was 0.978 and the IC50 was > 4 µM. For “NCI-H524 (small cell lung carcinoma, suspension, top dose 8 µM)”, the AUC was 0.981 and the IC50 was > 8 µM. “NCI-H526 (small cell lung carcinoma, suspension, top dose 8 µM)” was tested, and the AUC was 0.986 and the IC50 was > 8 µM. “NCI-H596 (lung adenocarcinoma, adherent, top dose 8 µM)” was tested, and the AUC was 0.982 and the IC50 was > 8 µM. With “NCI-H630 (large intestine, adherent, top dose 8 µM)” the AUC was 0.977 and the IC50 was > 8 µM. “NCI-H647 (non-small cell lung carcinoma, adherent, top dose 8 µM)” was tested, and the AUC was 0.983 and the IC50 was > 8 µM. In the case of “NCI-H650 (lung adenocarcinoma, adherent, top dose 8 µM)”, the AUC is reported as 0.985 and the IC50 is reported as > 8 µM. In the case of “NCI-H661 (large cell lung carcinoma, adherent, top dose 8 µM)”, the AUC is reported as 0.942 and the IC50 is reported as > 8 µM. For “NCI-H720 (lung carcinoid, suspension, top dose 8 µM)”, the AUC was 0.99 and the IC50 was > 8 µM. In the case of “NCI-H727 (lung carcinoid, adherent, top dose 8 µM)”, the AUC is reported as 0.968 and the IC50 is reported as > 8 µM. For “NCI-H747 (large intestine, adherent, top dose 8 µM)”, the AUC was 0.855 and the IC50 was > 8 µM. In the case of “NCI-H810 (large cell lung carcinoma, adherent, top dose 8 µM)”, the AUC is reported as 0.988 and the IC50 is reported as > 8 µM. With “NCI-H835 (lung carcinoid, suspension, top dose 8 µM)” the AUC was 0.984 and the IC50 was > 8 µM. “NCI-H838 (lung adenocarcinoma, adherent, top dose 8 µM)” was tested, and the AUC was 0.987 and the IC50 was > 8 µM. For “NCI-H841 (small cell lung carcinoma, adherent, top dose 8 µM)”, the AUC was 0.988 and the IC50 was > 8 µM. With “NCI-H847 (small cell lung carcinoma, adherent, top dose 8 µM)” the AUC was 0.993 and the IC50 was > 8 µM. “NCI-H929 (myeloma, suspension, top dose 8 µM)” was tested, and the AUC was 0.801 and the IC50 was 3.24 µM. In the case of “NCI-H1048 (small cell lung carcinoma, adherent, top dose 8 µM)”, the AUC is reported as 0.99 and the IC50 is reported as > 8 µM. In the case of “NCI-H1092 (small cell lung carcinoma, suspension, top dose 8 µM)”, the AUC is reported as 0.99 and the IC50 is reported as > 8 µM. For “NCI-H1105 (small cell lung carcinoma, suspension, top dose 8 µM)”, the AUC was 0.993 and the IC50 was > 8 µM. In the case of “NCI-H1155 (large cell lung carcinoma, suspension, top dose 8 µM)”, the AUC is reported as 0.993 and the IC50 is reported as > 8 µM. “NCI-H1304 (small cell lung carcinoma, suspension, top dose 8 µM)” was tested, and the AUC was 0.988 and the IC50 was > 8 µM. With “NCI-H1341 (small cell lung carcinoma, suspension, top dose 8 µM)” the AUC was 0.992 and the IC50 was > 8 µM. With “NCI-H1355 (lung adenocarcinoma, adherent, top dose 4 µM)” the AUC was 0.957 and the IC50 was > 4 µM. In the case of “NCI-H1395 (lung adenocarcinoma, adherent, top dose 8 µM)”, the AUC is reported as 0.982 and the IC50 is reported as > 8 µM. In the case of “NCI-H1417 (small cell lung carcinoma, suspension, top dose 8 µM)”, the AUC is reported as 0.977 and the IC50 is reported as > 8 µM. With “NCI-H1435 (lung adenocarcinoma, semi-adherent, top dose 8 µM)” the AUC was 0.99 and the IC50 was > 8 µM. For “NCI-H1436 (small cell lung carcinoma, suspension, top dose 8 µM)”, the AUC was 0.983 and the IC50 was > 8 µM. “NCI-H1437 (lung adenocarcinoma, adherent, top dose 8 µM)” was tested, and the AUC was 0.963 and the IC50 was > 8 µM. “NCI-H1563 (lung adenocarcinoma, adherent, top dose 8 µM)” was tested, and the AUC was 0.885 and the IC50 was > 8 µM. In the case of “NCI-H1568 (lung adenocarcinoma, adherent, top dose 8 µM)”, the AUC is reported as 0.978 and the IC50 is reported as > 8 µM. “NCI-H1623 (lung adenocarcinoma, adherent, top dose 8 µM)” was tested, and the AUC was 0.978 and the IC50 was > 8 µM. “NCI-H1648 (lung adenocarcinoma, adherent, top dose 4 µM)” was tested, and the AUC was 0.957 and the IC50 was > 4 µM. For “NCI-H1651 (lung adenocarcinoma, adherent, top dose 8 µM)”, the AUC was 0.982 and the IC50 was > 8 µM. For “NCI-H1688 (small cell lung carcinoma, adherent, top dose 8 µM)”, the AUC was 0.981 and the IC50 was > 8 µM. In the case of “NCI-H1693 (lung adenocarcinoma, adherent, top dose 4 µM)”, the AUC is reported as 0.958 and the IC50 is reported as > 4 µM. In the case of “NCI-H1694 (small cell lung carcinoma, suspension, top dose 8 µM)”, the AUC is reported as 0.985 and the IC50 is reported as > 8 µM. For “NCI-H1703 (lung adenocarcinoma, adherent, top dose 8 µM)”, the AUC was 0.898 and the IC50 was > 8 µM. For “NCI-H1755 (lung adenocarcinoma, adherent, top dose 8 µM)”, the AUC was 0.973 and the IC50 was > 8 µM. “NCI-H1770 (non-small cell lung carcinoma, suspension, top dose 8 µM)” was tested, and the AUC was 0.991 and the IC50 was > 8 µM. In the case of “NCI-H1781 (lung adenocarcinoma, adherent, top dose 8 µM)”, the AUC is reported as 0.989 and the IC50 is reported as > 8 µM. For “NCI-H1792 (lung adenocarcinoma, adherent, top dose 8 µM)”, the AUC was 0.987 and the IC50 was > 8 µM. For “NCI-H1836 (small cell lung carcinoma, suspension, top dose 8 µM)”, the AUC was 0.988 and the IC50 was > 8 µM. With “NCI-H1838 (lung adenocarcinoma, adherent, top dose 4 µM)” the AUC was 0.984 and the IC50 was > 4 µM. With “NCI-H1869 (lung squamous cell carcinoma, adherent, top dose 8 µM)” the AUC was 0.963 and the IC50 was > 8 µM. For “NCI-H1876 (small cell lung carcinoma, adherent, top dose 8 µM)”, the AUC was 0.987 and the IC50 was > 8 µM. “NCI-H1944 (lung adenocarcinoma, adherent, top dose 8 µM)” was tested, and the AUC was 0.907 and the IC50 was > 8 µM. For “NCI-H1975 (lung adenocarcinoma, adherent, top dose 8 µM)”, the AUC was 0.982 and the IC50 was > 8 µM.

— the supplement of paper PMC4967469
